First the molecules themselves.
B1: LINE1-mini (parent)
chain: GGCAGAGCUCAACACAGCGUGGCAAAGUGGCUGUGGCUAGACUGCC

The source gives no read counts; variants with many changes may rest on few reads.

The variants in the data set derive from B1. Put plainly: self-cleavage, relative activity (ratio to wild type); higher = more cleavage; in vitro, sequencing; the parent is a self-cleaving ribozyme.
In the case of GGCAGAGGUCAACACAGCGUGGCAAAGUGGCUGUGGCUUGACUGCU [C8G A39U C46U], the self-cleavage is 0.04. Take GGCAGAGGUCAAUACAACCUGGCAAAGUGGCUGUGACUAGACUGCC [C8G C13U G17A G19C G36A]: the self-cleavage was determined as 0.07.

With GGCAGAGGUCAACACAGCGUGGCCCAGUGGCUGUGGCUAGACUGCC [C8G A24C A25C], the self-cleavage was determined as 0.06. With GGCAGAGGUCAACACAGCGUGGCCAAGUGUCUGUGGCUAGACUGCC [C8G A24C G30U], the self-cleavage was determined as 0.02.

GGCAGAGGUCAACACAGCGUGGCAAAGUGGCUGUGGCUAGGCUGAC [C8G A41G C45A]: the self-cleavage came to 0.03. As for GGCAGAGGUCAAAACAGCGUGACAAAGUGGCUGUGGCUAAACUGCC [C8G C13A G22A G40A], the self-cleavage amounted to 0.03. The result for GGCAGAGGUCAAUACAGCGUGGCAAACAGGCUGUGGCUUGACUGCC [C8G C13U G27C U28A A39U] reads 0. Take GGCAGAGGUAAUCCCAGCGUGGCAAAGUGGCUGUGGCUAGAGUCAC [C8G C10A A12U A14C C42G G44C C45A]: the self-cleavage came to 0.01. Then GGCAGAGGUCAACCCAGCGUGGCAAAGUUGCUGUGGCUAGACUGCC [C8G A14C G29U], with 0.02; and GGCAGAGGUCAACGCAGCGCGGCAAAGUGGCUGUGGCUAGUUUGCC [C8G A14G U20C A41U C42U], with 0.09. As for GGCAGAGGUCACCACAGCGUGGCAAAGUGGCUGUGUCUAGACUGCC [C8G A12C G36U], the self-cleavage is 0.05. Turning to GGCAGAGGUCAAAACAGCGUGGCUAAGUGGCCGUGGCUAGACUGCC [C8G C13A A24U U32C], the self-cleavage turned out to be 0.1.

With GGCAGAGGUCAACACAGCGUGGCAGAGUGCCUGUGGCAUGACUGCC [C8G A25G G30C U38A A39U], the self-cleavage was determined as 0.03. The result for GGCAGAGGUAAACACAGCGUGGCAACGUGGAUGUGGCAAGACUGCC [C8G C10A A26C C31A U38A] reads 0.01; that for GGCAGAGGUCAACCCAGCGUGGCACAGUGGCUGUGGCUAGACUGCC [C8G A14C A25C], 0.02; that for GGCAGAGGUCAACACAGCGUGGCAUAGCGGCUGGGGCUAGACAGCC [C8G A25U U28C U34G U43A], 0.03. Then GGCAGAGGUCAUCACAGCGUUUCAAAGUCGCUGUGGCUAGACUGCC [C8G A12U G21U G22U G29C], with 0.03; and GGCAGAGGUCAAUACAGCGUGGCCAAGUGGCUGUGGCUAAACUGCC [C8G C13U A24C G40A], with 0.02; and GGCAGAGGUCAACGCAGCGUGGCAAAGUGGCUGUGCCGAGACUGCC [C8G A14G G36C U38G], with 0.04. The result for GGCAGAGGUCAACACAGCGUGGCCAAGUGGCUGUGGCUAGAGUCCC [C8G A24C C42G G44C] reads 0.04; that for GGCAGAGGUCAACACAGCGUGGCAGAGUGGCUGUGGCUAGACUUCC [C8G A25G G44U], 0; that for GGCAGAGGUCAUGACAGCGUGGCAAAGUGGCUGUGGCUAGUCUGCC [C8G A12U C13G A41U], 0.02. With GGCAGAGGUCAACACCGCGUGGCAAAGUGGCUGUGGCUAGGCUGCC [C8G A16C A41G], the self-cleavage is 0.02. The result for GGCAGAGGUCAACACCGCGUGGCAAAGUGGCUGUGGCUAGUCUGCC [C8G A16C A41U] reads 0.02. Then GGCAGAGGUCAUCACAGCGUGGCAAAGUGGCUGUGGCUAGGCUGAC [C8G A12U A41G C45A], with 0.11. The result for GGCAGAGGUCAACUAAGCGUGGCAAAGUGGCUGUGGCUAGACUGCA [C8G A14U C15A C46A] reads 0.09.

With GGCAGAGGUCAACACAGCGUGGCACAAUGGCUGUGGCUAGACUGCC [C8G A25C G27A], the self-cleavage was found to be 0.01. The result for GGCAGAGGUCAGUACAGCGUGGCAAAGUGGCUGUUGCUAGACUGCC [C8G A12G C13U G35U] reads 0.01. Then GGCAGAGGUCAACACAGCGUGGCUAGGUGGCUGUGGCUAGACUGCC [C8G A24U A26G], with 0.01. The result for GGCAGAGGUCAACACCGCGUGGCAAAGUGGCUGUGGCUAGACCGCC [C8G A16C U43C] reads 0.01; that for GGCAGAGGUCAACACCGCGUGGCAAAGUGGCUGUGCCUAGACUGGC [C8G A16C G36C C45G], 0.02. For GGCAGAGGUCAUCACAGCGUGGCAAAGUGGCUGUGGCUAGAUUGCC [C8G A12U C42U], the self-cleavage is 0.02.

With GGCAGAGGUCAACACAGCGUGGCGAAAUGGCUGUGGCUAGAAUGCC [C8G A24G G27A C42A], the self-cleavage was 0.03.

Take GGCAGAGGUCAACACGGCGUGGCAAAAUGGCUGUAGCUAGACUGGC [C8G A16G G27A G35A C45G]: the self-cleavage is 0.04. The result for GGCAGAGGUCAGCACAGCGUGGCAAAGAGGCUGUGGUUAGACUGCC [C8G A12G U28A C37U] reads 0.03; that for GGCAGAGGUUAACACAUCGAGUCAAAGUGGCUGUGGCUAGACUGCC [C8G C10U G17U U20A G22U], 0.03; that for GGCAGAGGUCAAAACAGCGUGGCAAAAUGGCUGUGGCUAGACUGCC [C8G C13A G27A], 0.1. The result for GGCAGAGGUCAACACAGCGUGGCAAGGUGGCUGUGGCUAGACUGCA [C8G A26G C46A] reads 0.03; that for GGCAGAGGUCAACACAGCGUGGCUAAAUGGCUGUGGCUAGACUGCC [C8G A24U G27A], 0.14.

With GGCAGAGGUCAACACAGCGUGGCACAGUGGCUGUUACUAGACUGCU [C8G A25C G35U G36A C46U], the self-cleavage stood at 0.06. Then GGCAGAGGUCAACACAGCGUGGCCAAGGGGCUGUGGCUAGACUGCC [C8G A24C U28G], with 0.06; and GGCAGAGGUCAUAACAGCGUGGCAAACUGGCUGUGGCUAGACUGCC [C8G A12U C13A G27C], with 0.06.

With GGCAGAGGUUAACACAGCUUGGCAAAGUGGCUGUGGCUAGACUGCC [C8G C10U G19U], the self-cleavage is 0.03. Then GGCAGAGGUCAAGACACCUUGGCAAAGUGGCUUUGGCUAGACUGCC [C8G C13G G17C G19U G33U], with 0.01; and GGCAGAGGUCAACUCAGCGUGGCAACGUGGCUGUGGCUAGACUGCC [C8G A14U A26C], with 0.03. The result for GGCAGAGGUCAUCAUAGCGUGGCAAAGUGGCUGUGGCUAGACUGCC [C8G A12U C15U] reads 0.07; that for GGCAGAGGUCAAGACAGCGUGGCAAAGUGGCUGAGGCUAGACUGCC [C8G C13G U34A], 0.23; that for GGCAGAGGUCAAGACAGCGUGGCAAAGUGGCUGUGGCUAGCCUGCU [C8G C13G A41C C46U], 0. The result for GGCAGAGGUAAACACAGCGUGGGAAAGUGGCUGUGGCUAGACUGCC [C8G C10A C23G] reads 0. In the case of GGCAGAGGUGAACACAGCGUGGCAAAGUGGCUGUGGCUGGACUGCC [C8G C10G A39G], the self-cleavage was 0.02. In the case of GGCAGAGGUCAACACUGCGUGGCCAAGUGGCUGUGGCUAGAAUGAC [C8G A16U A24C C42A C45A], the self-cleavage is 0.05. For the variant GGCAGAGGUCAACGCAGCGAGGCAAAGUGGCUGUGGCUAGAAUGCC [C8G A14G U20A C42A], the self-cleavage came to 0.02. The result for GGCAGAGGUCAAGACAGCGUGCCAAAGUGGCUGUGGCUAGACUGCC [C8G C13G G22C] reads 0.02. The result for GGCAGAGGUCAACACCGCGUGGCAAAGGGAAUGUGGCUAGACUGCC [C8G A16C U28G G30A C31A] reads 0.03; that for GGCAGAGGUAAACACAGCGUGGCAAAGUGGCUGAGGAUAGACUGCC [C8G C10A U34A C37A], 0.02.

As for GGCAGAGGUCAAGACAGCGCGGCAAAGUGGCUGUGGCUAGACUGCC [C8G C13G U20C], the self-cleavage was 0.03.

The values above are taken from the RNAGym collection of RNA variant scans (doi:10.7554/elife.90254).
